Measured values from PubChem BioAssay AID485294 (National Center for Advancing Translational Sciences (NCATS), 2010).
In all, about 370,000 compounds went through this assay and about 150 (0.041%) were called active. The inconclusive results got no clear call from the source; some entries with a clear call stand among them for comparison. Calls follow the shape of the dose curve; as a rule, active = well fitted inhibition curve with a large enough effect; inconclusive = small, poorly fitted or top-dose-only effect; inactive = flat fitted curve, though single readings scatter. Potencies of inconclusive entries are left out as doubtful fits.

These compounds were tested against Beta-lactamase (Escherichia coli (strain K12)) (UniProt P00811) (assay: qHTS Inhibitors of AmpC Beta-Lactamase (assay with detergent)). Conditions: AmpC hydrolysis of nitrocefin, absorbance 480 nm, 0.01% Triton; series mostly up to 114 µM.
UniProt P00811, sequence (P00811 whole entry, looked up): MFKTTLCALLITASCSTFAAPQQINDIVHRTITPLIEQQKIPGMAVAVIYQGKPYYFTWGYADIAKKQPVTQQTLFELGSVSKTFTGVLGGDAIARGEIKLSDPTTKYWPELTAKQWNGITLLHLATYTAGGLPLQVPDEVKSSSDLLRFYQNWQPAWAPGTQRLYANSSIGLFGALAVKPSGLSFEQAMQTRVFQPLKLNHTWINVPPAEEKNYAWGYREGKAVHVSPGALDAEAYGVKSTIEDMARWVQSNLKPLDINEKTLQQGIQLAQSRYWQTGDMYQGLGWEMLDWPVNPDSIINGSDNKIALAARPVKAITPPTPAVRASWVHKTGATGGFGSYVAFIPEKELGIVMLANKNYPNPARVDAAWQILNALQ
How it was run: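 20 mM phosphate pH 7.0 + 0.01% (detergent screen) or 0.0001% Triton X-100; 5.3 nM AmpC reagent; cpd preinc 15 min RT; nitrocefin (800 uM stock) to start; A480 q20 s × 4 min; Activity was normalised to no-enzyme and no-compound control wells.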
Also: nearly all actives have a fitted effect of over 25% in size.
Potency is read from the fitted curve at half-maximal effect; tags tell the direction and shape of the fitted curve.

SMILES	Potency
COc1ccc(CN2C(=O)NC(=O)/C(=C\c3ccco3)C2=O)cc1	inconclusive [inhibitor, full curve]
CC1(C)CC(=O)C(N=Nc2cc(C(F)(F)F)ccc2Cl)=C(O)C1	inconclusive [inhibitor, partial curve]
CCn1c(=O)n(CC)c2cc(S(=O)(=O)Nc3ccccc3C)c(C)cc21	inconclusive [inhibitor, single point]
O=C1C2C3CCC(C3NCc3ccccc3)C2C(=O)N1Cc1ccccc1 (stereo not given)	inactive
CCOc1ccccc1-c1nnc(SCC(=O)NC2(C#N)CCCC2)o1	inactive
CCN(CCCn1c(SCC#N)nc2ccccc2c1=O)c1ccccc1	inconclusive [inhibitor, single point]
Cc1ccc(C(=O)Oc2ccccc2C(=O)N2CCOCC2)cc1	inconclusive [inhibitor, single point]
N=C(N)SCc1cn2ccccc2n1	inactive
Cc1ccc(N2CC(NC(=O)Cc3ccc(F)cc3)CC2=O)cc1C (stereo not given)	inactive
CCc1ccccc1N(CC(=O)NCc1ccco1)C(=O)c1snc(C(N)=O)c1N	inconclusive [inhibitor, partial curve, poor fit]
O=C(CN1C(=O)COc2ccccc21)NCCCN1CCN(Cc2ccccc2)CC1	inactive
COCC(C)n1c(C)cc(C(=O)COC(=O)c2ccc(N3CCCC3=O)cc2)c1C (stereo not given)	inconclusive [inhibitor, full curve, poor fit]
CCOC(=O)c1nnc2c(-c3ccc(F)cc3)c(C)nn2c1N	inactive
Cc1cc(NC(=O)c2ccc([N+](=O)[O-])o2)ccc1NC(=O)c1ccco1	inactive
Cc1cccc(Cc2c(C)nc3nc(SCC(=O)NC4CCCCC4)nn3c2C)c1	inactive
CCOc1cc(NC(=S)N2CCC(C(N)=O)CC2)c(C(=O)OC)cc1OCC	inconclusive [inhibitor, single point]
CCOC(=O)C1CCN(Cc2cccc(Oc3ccccc3)c2)CC1	inconclusive [inhibitor, full curve, poor fit]
CCc1nc(SCC(N)=O)c2c(=O)n(C)c(=O)n(C)c2n1	inconclusive [inhibitor, full curve, poor fit]
O=C(Nc1cccc(Cl)c1)c1ccc2c(c1)OCCO2	inconclusive [inhibitor, full curve, poor fit]
O=C(OCc1cc(=O)n2c(n1)sc1ccccc12)c1ccc(O)cc1	inactive
Cc1[nH]nc2c1C1(CCN(C(=O)c3ccccc3)CC1)C(C#N)=C(N)O2	inconclusive [inhibitor, full curve]
CC(C)Sc1nc2c(c(=O)n(C)c(=O)n2C)n1C	inconclusive [inhibitor, partial curve, poor fit]

SMILES	Potency
Cc1c(CC(=O)N2C[C@H]3C[C@@H](C2)c2cccc(=O)n2C3)c(=O)oc2cc3occ(C(C)(C)C)c3cc12	inconclusive [inhibitor, full curve, poor fit]
O=C(OCc1cn(-c2ccc(Cl)c(Cl)c2)nn1)c1ccccc1	inconclusive [inhibitor, single point]
COc1ccc(C(=O)N2N=C(c3cccs3)CC2c2ccccc2O)cc1 (stereo not given)	inactive
CC(OC(=O)CNC(=O)c1ccc(Cl)c([N+](=O)[O-])c1)C(=O)NC1CCCCC1C (stereo not given)	inconclusive [inhibitor, full curve]
COc1ccc(OC)c(CCNC(=O)Cn2ccc3cc(S(=O)(=O)N4CCCC4)ccc32)c1	inactive
Cc1ccc(CNC(=O)C2CCN(S(=O)(=O)c3c(C)noc3/C=C/c3ccccc3F)CC2)o1	inconclusive [inhibitor, full curve, poor fit]
Cc1ccc(C(=O)c2cc(C)sc2NC(=O)CN2CCN(C(=O)c3ccco3)CC2)cc1	inconclusive [inhibitor, partial curve, poor fit]
COc1cccc(CNC(=O)C2CCCN(S(=O)(=O)c3cn(C)cn3)C2)c1 (stereo not given)	inconclusive [inhibitor, single point]
CCOC(=O)NC1(C(F)(F)F)C(=O)NC(C)=C1C#N (stereo not given)	inconclusive [inhibitor, full curve]
C=CCOC(=O)C1=C(C)Nc2nnnn2C1c1cccc(OC)c1OC (stereo not given)	inconclusive [inhibitor, single point]
Cc1c(Cl)cccc1-c1ccc(CNCc2ccccn2)o1	inconclusive [inhibitor, full curve, poor fit]
O=S(=O)(c1ccc(OCC(O)CN2CCc3ccccc3C2)cc1)N1CCOCC1 (stereo not given)	inconclusive [inhibitor, partial curve]
O=C(O)c1cc(O)c2c(c1)[C@@H]([C@H]1c3cc(C(=O)O)cc(O)c3C(=O)c3c(O[C@@H]4O[C@H](CO)[C@@H](O)[C@H](O)[C@H]4O)cccc31)c1cccc(OC3O[C@H](CO)[C@@H](O)[C@H](O)[C@H]3O)c1C2=O (stereo not given in full)	inconclusive [inhibitor, full curve, poor fit]
CC(=O)NCCC(=O)Nc1cc(S(=O)(=O)N2CCOCC2)ccc1Oc1ccccc1	inconclusive [inhibitor, full curve]
COc1ccc(C(=O)Nc2ccc(N3CCCC3)cc2)cc1	inconclusive [inhibitor, full curve, poor fit]
CC(C)C[C@H](NC(=O)C1(c2ccccc2)CCN(C(=O)OC(C)(C)C)CC1)C(=O)N1CCC[C@H]1C(=O)O	inconclusive [inhibitor, partial curve, poor fit]
CCOc1ccccc1NC(=O)N1CCCN(c2ncccc2C#N)CC1	inactive
CC(=O)n1c2ccccc2c2ccccc21	inconclusive [inhibitor, full curve, poor fit]
CCOc1ccccc1Nc1nnc(SCC(=O)Nc2cc(C)on2)s1	inconclusive [inhibitor, single point]
COC(=O)CN1C(=O)N/C(=C/c2ccc(C)o2)C1=O	inactive
O=C1CN(C(=O)c2ccccn2)c2ccccc2N1	inconclusive [inhibitor, partial curve, poor fit]
NC(=O)NCC(c1ccccc1)C1CCCCC1 (stereo not given)	inconclusive [inhibitor, full curve, poor fit]

SMILES	Potency
CCOC(=O)C1CCCN(C(=O)c2ccc(OCC)cc2)C1 (stereo not given)	inconclusive [inhibitor, full curve, poor fit]
CCCCn1c(N)c(N(CC(C)C)C(=O)CSCC(=O)Nc2ccc(C)cc2)c(=O)[nH]c1=O	inconclusive [inhibitor, full curve, poor fit]
Nn1c(C2CCC2)nc2ccccc2c1=O	inconclusive [inhibitor, partial curve, poor fit]
CC(c1ccccc1)N(NC(=O)C(O)(c1ccccc1)c1ccccc1)C(=O)c1ccccc1 (stereo not given)	inconclusive [inhibitor, full curve]
COc1ccc2nc(NS(=O)(=O)c3ccc(NC(C)=O)cc3)sc2c1	inconclusive [inhibitor, partial curve, poor fit]
O=C(CSc1nnc(-c2ccco2)o1)c1ccccc1	inconclusive [inhibitor, full curve, poor fit]
Cc1nc2ccc(NC(=O)c3ccc(Cl)c(S(=O)(=O)N(C)c4ccccc4)c3)cc2s1	inconclusive [inhibitor, single point]
Cc1cc(C)c(NC(=O)CNC(=O)CN(C)Cc2ccc(Br)s2)c(C)c1	inconclusive [inhibitor, full curve, poor fit]
COc1ccccc1NC(=O)c1ccccc1Oc1ccccc1	inconclusive [inhibitor, full curve, poor fit]
Cn1c(=O)nc2n(-c3ccc(Br)cc3)c3cccc(Cl)c3cc-2c1=O	inactive
COC(=O)c1ccccc1NC(=O)CSc1nc(N)cc(N)n1	inactive
CCOC(=O)C1CCCN(S(=O)(=O)c2cc(C(=O)OC)n(C)c2)C1 (stereo not given)	inconclusive [inhibitor, partial curve, poor fit]
O=S(=O)(NCc1nnc2ccccn12)c1ccc(Cl)cc1	inconclusive [inhibitor, partial curve, poor fit]
CN(C)CCN(C(=O)c1ccc(N2C(=O)CCC2=O)cc1)c1nc2cc3c(cc2s1)OCCO3	inactive
O=C(OCc1nnc(-c2ccccc2)o1)c1ccc2c(c1)OCO2	inconclusive [inhibitor, full curve, poor fit]
CN(C)c1ccc(NC(=O)c2ccc(N3CCOCC3)nc2)cc1	inactive
O=C(CS(=O)(=O)c1ccccc1)Nc1ccc(Cl)cn1	inactive
COc1cc(/C=N/N2CCN(c3ccccc3OC)CC2)ccc1O	inactive
Cc1ccc(S(=O)(=O)N2CCOCC2)cc1C(=O)Nc1ccc2c(c1)OCCO2	inconclusive [inhibitor, full curve, poor fit]
COc1ccc(CN(CCCN2CCOCC2)C(=O)Nc2ccccc2)cc1OC	inconclusive [inhibitor, single point]
O=C(COc1ccc(Cl)cc1)N(Cc1cccs1)C1CCS(=O)(=O)C1 (stereo not given)	inconclusive [inhibitor, full curve]
